According to the supplement of paper PMC6206098:
± gives the uncertainty stated by the source. Shown are siRNA guide strands that differ only in the seed, positions 2 to 7.

Key:
3LL = test: cell viability relative to siNT1 control; higher = less toxic; conditions: concentration: 10 nM; 96 h; Mus musculus;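 note: Luminescence-based viability of cells reverse transfected in 384-well plates with lipid-complexed siRNAs built on a non-toxic 19mer backbone whose passenger strand carries 2′-O-methyl groups at positions 1 and 2, triplicates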
H460 = test: cell viability relative to lipid-only control; HeyA8 human ovarian and H460 human lung cancer; M565 mouse liver and 3LL mouse lung cancer; siNT1 is a non-toxic control siRNA; higher = less toxic; conditions: concentration: 10 nM; 96 h; Homo sapiens
HeyA8 = test: as above; conditions: concentration: 10 nM; 96 h; Homo sapiens
M565 = test: as above; conditions: concentration: 10 nM; 96 h; Mus musculus
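Throughout, for cell viability relative to lipid-only control: reverse lipid transfection in 384-well plates, in triplicate, of duplexes on a non-toxic 19mer backbone with passenger strand 2′-O-methylated at positions 1 and 2, luminescence viability read-out.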

Row | Sequence | cell viability (3LL) [%] | cell viability (H460) [%] | cell viability (HeyA8) [%] | cell viability (M565) [%]
1 | UUGCGCCACAUGUAAACCAAA | 9.86 ± 2.5 | 32.6 ± 1.9 | 58.6 ± 2 | 44.4 ± 14
2 | UUGCGCGACAUGUAAACCAAA | 96.7 ± 6.8 | 72.8 ± 5.8 | 96.4 ± 2.9 | 56.2 ± 7.9
3 | UUGCGCUACAUGUAAACCAAA | 45.8 ± 5.1 | 105 ± 8.6 | 90.8 ± 11 | 34.6 ± 4.4
4 | UUGCGGAACAUGUAAACCAAA | 82.3 ± 3.2 | 70.9 ± 7.3 | 90.5 ± 4.5 | 61.5 ± 2.5
5 | UUGCGGCACAUGUAAACCAAA | 43.9 ± 1.8 | 35.4 ± 0.91 | 35.7 ± 4.9 | 20.5 ± 2.8
6 | UUGCGGGACAUGUAAACCAAA | 59.9 ± 8.4 | 53.8 ± 3.4 | 59.7 ± 6.9 | 45.8 ± 8.9
7 | UUGCGGUACAUGUAAACCAAA | 65.2 ± 7.8 | 42.1 ± 2.1 | 53.2 ± 1.9 | 12.7 ± 5.3
8 | UUGCGUAACAUGUAAACCAAA | 84.7 ± 6.5 | 87 ± 7.5 | 97.8 ± 5.2 | 98 ± 18
9 | UUGCGUCACAUGUAAACCAAA | 63.5 ± 3.7 | 98.9 ± 9.8 | 93.5 ± 5 | 46.8 ± 5.4
10 | UUGCGUGACAUGUAAACCAAA | 64.1 ± 4.5 | 71.9 ± 4.8 | 81.1 ± 9.2 | 51 ± 2.4
11 | UUGCGUUACAUGUAAACCAAA | 31.2 ± 3.3 | 82.5 ± 4.3 | 95.3 ± 8.6 | 72.8 ± 16
12 | UUGCUAAACAUGUAAACCAAA | 51 ± 2.4 | 24.3 ± 1.6 | 59 ± 8 | 107 ± 16
13 | UUGCUACACAUGUAAACCAAA | 39.5 ± 7.7 | 17.3 ± 2.5 | 31.2 ± 3.5 | 87.4 ± 12
14 | UUGCUAGACAUGUAAACCAAA | 72 ± 3.3 | 41.3 ± 6 | 69.7 ± 3.6 | 86.2 ± 6.2
15 | UUGCUAUACAUGUAAACCAAA | 35.2 ± 3.3 | 44.6 ± 2 | 68.4 ± 3.6 | 77.2 ± 12
16 | UUGCUCAACAUGUAAACCAAA | 86.4 ± 1 | 56.8 ± 5.3 | 74.6 ± 4.1 | 73.9 ± 13
17 | UUGCUCCACAUGUAAACCAAA | 17.4 ± 3.7 | 31.6 ± 2.8 | 49.7 ± 3.3 | 26.8 ± 3.7
18 | UUGCUCGACAUGUAAACCAAA | 68.1 ± 6.9 | 66.9 ± 2.1 | 69.4 ± 8 | 60.9 ± 7.6
19 | UUGCUCUACAUGUAAACCAAA | 37.1 ± 4.2 | 53.1 ± 5.7 | 65.4 ± 3.4 | 21.4 ± 7.3
20 | UUGCUGAACAUGUAAACCAAA | 38.4 ± 5.2 | 90.4 ± 9.9 | 77.3 ± 1.1 | 29.7 ± 7.5

Row | Sequence | cell viability (3LL) [%] | cell viability (H460) [%] | cell viability (HeyA8) [%] | cell viability (M565) [%]
21 | UUGCUGCACAUGUAAACCAAA | 36.7 ± 7.2 | 61.7 ± 2.4 | 62.4 ± 5.2 | 6.66 ± 2.5
22 | UUGCUGGACAUGUAAACCAAA | 14 ± 4.6 | 46.5 ± 8 | 52.9 ± 9.9 | 13.3 ± 2.1
23 | UUGCUGUACAUGUAAACCAAA | 29.3 ± 8 | 79.8 ± 2.6 | 85.8 ± 5.3 | 19.7 ± 1.4
24 | UUGCUUAACAUGUAAACCAAA | 94.7 ± 10 | 95.8 ± 9 | 97 ± 7.7 | 128 ± 29
25 | UUGCUUCACAUGUAAACCAAA | 66.1 ± 5.3 | 79.6 ± 9.1 | 56.7 ± 2 | 75 ± 12
26 | UUGCUUGACAUGUAAACCAAA | 53.9 ± 12 | 91.5 ± 16 | 70.4 ± 4.2 | 92.2 ± 11
27 | UUGCUUUACAUGUAAACCAAA | 71.3 ± 5.6 | 83.2 ± 4.4 | 78.8 ± 9.1 | 108 ± 26
28 | UUGGAAAACAUGUAAACCAAA | 92.7 ± 9.3 | 103 ± 17 | 86 ± 9.1 | 79.9 ± 19
29 | UUGGAACACAUGUAAACCAAA | 71.1 ± 6.7 | 77.9 ± 8.1 | 85.4 ± 5.6 | 31.9 ± 6.5
30 | UUGGAAGACAUGUAAACCAAA | 68.9 ± 10 | 78.4 ± 4.5 | 59.4 ± 1.5 | 53.6 ± 8.6
31 | UUGGAAUACAUGUAAACCAAA | 78.9 ± 14 | 76.9 ± 2.2 | 78.1 ± 1.4 | 35.2 ± 12
32 | UUGGACAACAUGUAAACCAAA | 52 ± 4.9 | 61.3 ± 2.7 | 66.8 ± 2.1 | 33.6 ± 2.3
33 | UUGGACCACAUGUAAACCAAA | 15.1 ± 3.8 | 64.6 ± 3.3 | 72 ± 8.6 | 15.4 ± 5.2
34 | UUGGACGACAUGUAAACCAAA | 65 ± 6.2 | 70.3 ± 7 | 72.5 ± 5.8 | 29.5 ± 2.3
35 | UUGGACUACAUGUAAACCAAA | 15.3 ± 5 | 39.7 ± 3.6 | 58.5 ± 3.3 | 33 ± 5.1
36 | UUGGAGAACAUGUAAACCAAA | 29.5 ± 5.1 | 60.5 ± 4.1 | 67.8 ± 2.4 | 33.1 ± 9
37 | UUGGAGCACAUGUAAACCAAA | 7.38 ± 0.93 | 27.7 ± 4.1 | 27.4 ± 0.9 | 4.25 ± 0.95
38 | UUGGAGGACAUGUAAACCAAA | 38.1 ± 7.2 | 18.7 ± 4.9 | 28 ± 4.2 | 14 ± 5.1
39 | UUGGAGUACAUGUAAACCAAA | 58.2 ± 6 | 75 ± 5.4 | 71.6 ± 6.1 | 26.3 ± 2.9
40 | UUGGAUAACAUGUAAACCAAA | 95.8 ± 13 | 85.9 ± 15 | 96.3 ± 13 | 100 ± 20

Row | Sequence | cell viability (3LL) [%] | cell viability (H460) [%] | cell viability (HeyA8) [%] | cell viability (M565) [%]
41 | UUGGAUCACAUGUAAACCAAA | 22.2 ± 5.8 | 38.7 ± 5.6 | 35.4 ± 3 | 73.4 ± 5.8
42 | UUGGAUGACAUGUAAACCAAA | 81.9 ± 10 | 53.6 ± 8 | 61.9 ± 3.4 | 54.4 ± 5.8
43 | UUGGAUUACAUGUAAACCAAA | 87 ± 5.7 | 75.1 ± 7.7 | 88.9 ± 6.1 | 88.2 ± 2.3
44 | UUGGCAAACAUGUAAACCAAA | 66.7 ± 7.5 | 91.2 ± 5.1 | 87.2 ± 4.5 | 64.3 ± 5.6
45 | UUGGCACACAUGUAAACCAAA | 57.1 ± 4.6 | 67.3 ± 6.5 | 41.4 ± 5 | 38.7 ± 11
46 | UUGGCAGACAUGUAAACCAAA | 19.3 ± 7.1 | 92.4 ± 2.5 | 58.1 ± 6.9 | 34.2 ± 3.3
47 | UUGGCAUACAUGUAAACCAAA | 44.1 ± 0.98 | 85.6 ± 6.4 | 71.6 ± 5 | 42.2 ± 7.9
48 | UUGGCCAACAUGUAAACCAAA | 70.4 ± 1.5 | 74.1 ± 5.1 | 100 ± 11 | 83.3 ± 14
49 | UUGGCCCACAUGUAAACCAAA | 19.6 ± 3.1 | 59.1 ± 3.8 | 68.6 ± 11 | 37.5 ± 7
50 | UUGGCCGACAUGUAAACCAAA | 70.5 ± 5.1 | 64.1 ± 5.8 | 75.1 ± 6.8 | 93.9 ± 19
51 | UUGGCCUACAUGUAAACCAAA | 46.2 ± 12 | 89 ± 10 | 80.6 ± 5 | 44.4 ± 2.2
52 | UUGGCGAACAUGUAAACCAAA | 83.1 ± 8.9 | 60.6 ± 9.4 | 94.4 ± 3.2 | 58.7 ± 8.6
53 | UUGGCGCACAUGUAAACCAAA | 41.1 ± 1.5 | 92.7 ± 8.6 | 79.7 ± 11 | 69.1 ± 6.4
54 | UUGGCGGACAUGUAAACCAAA | 24.5 ± 1.1 | 14.6 ± 1.9 | 5.05 ± 0.42 | 26.3 ± 11
55 | UUGGCGUACAUGUAAACCAAA | 69.3 ± 13 | 99.9 ± 10 | 74.1 ± 4.9 | 67.8 ± 9.1
56 | UUGGCUAACAUGUAAACCAAA | 99.8 ± 7.6 | 102 ± 11 | 81.5 ± 3.1 | 68.4 ± 6.6
57 | UUGGCUCACAUGUAAACCAAA | 43.6 ± 5.1 | 44.1 ± 6.9 | 72.3 ± 3.6 | 88.5 ± 11
58 | UUGGCUGACAUGUAAACCAAA | 27.7 ± 3.7 | 70 ± 9.9 | 69.3 ± 1.3 | 67.5 ± 24
59 | UUGGCUUACAUGUAAACCAAA | 93.3 ± 4.6 | 88.8 ± 3.7 | 93.7 ± 13 | 72.9 ± 7.2
60 | UUGGGAAACAUGUAAACCAAA | 63 ± 8.7 | 61 ± 6.3 | 67 ± 4.1 | 68.4 ± 3.1
